Laboratory results from PubChem BioAssay AID1814 (Broad Institute, 2009).
The whole screen tested about 300,000 compounds, of which about 22,000 (7.3%) were called active. The inconclusive results got no clear call from the source; some entries with a clear call stand among them for comparison. Cut-off read from the data, not from the text of the source: active = activity score below about -60%; inconclusive = mostly about -28% to -61%; inactive = positive scores.

Assay: Activators via SNCA 5'UTR binding, MLPCN (AID 1814)
Settings: alpha-synuclein 5'UTR reporter, activators screen; active compounds read low; tested at 7.5 µM
With `Cc1cc(Nc2ccc(Cl)cc2)n(-c2cccc(Cl)c2)n1` the activity score was inconclusive: -45%. In the case of `COc1ccccc1-c1nnc(SCC(=O)Nc2nc(-c3ccccc3)cs2)n1C`, the activity score is reported as inconclusive: -51.8%. For `CC1CCCC(C)N1CCCNC(=O)c1cc2c(s1)-c1ccccc1OC2` (stereo not given), the activity score was inactive: 69.9%. With `Clc1ccc(/C=C/c2nc3ccccc3[nH]2)c(Cl)c1` the activity score was inactive: 68.2%. For `O=[N+]([O-])c1ccccc1/C=C/C=N/Nc1nc(N2CCCCC2)nc(N2CCCCC2)n1`, the activity score was inconclusive: -47.7%. In the case of `Cc1cc(/C=C(\C#N)C(=O)N2CCCCC2)cc(C)c1O`, the activity score is reported as inconclusive: -43.7%. For `COc1cc([N+](=O)[O-])cc2sc(NC(=O)C(C)(C)C)nc12`, the activity score was inconclusive: -59.6%. With `O=C(O)c1cccc(COc2ccc(CO)cc2Cl)c1` the activity score was inactive: 105%. For `COc1ccc(OCCN2C(=O)c3cccc(N)c3C2=O)cc1`, the activity score was active: -97.7%. For `COc1ccc(NC(=O)CSc2ccccn2)cc1`, the activity score was active: -78.7%. In the case of `CC(=O)Nc1ccc(S(=O)(=O)N/N=C/c2ccc(C)s2)cc1`, the activity score is reported as active: -137%. In the case of `Cc1ccc(C(=O)N/C(=C\c2ccc(-c3ccc(Cl)cc3)o2)C(=O)NCCCN(C)C)cc1`, the activity score is reported as inactive: 56.8%. With `O=C(Cc1ccc(Cl)cc1)Nc1ccc(-c2cc3ccccc3oc2=O)c(Cl)c1` the activity score was inactive: 96.1%. In the case of `O=[N+]([O-])c1cccc(NN=Nc2ccccc2)c1`, the activity score is reported as active: -129%. With `CCOC(=O)N1CCN(C(=O)CSCC(=O)Nc2nc(-c3ccc(Cl)s3)cs2)CC1` the activity score was active: -85.3%. For `CCC(C(=O)Nc1ncn[nH]1)(C(F)(F)F)C(F)(F)F`, the activity score was inconclusive: -31.9%. With `O=C(NNC(=O)C12CC3CC(CC(C3)C1)C2)c1ccccn1` the activity score was inconclusive: -49.7%. In the case of `O=C(N/N=C/c1cccs1)c1cccc2cc[nH]c12`, the activity score is reported as inconclusive: -55.5%. For `CCc1ccc(NC(=O)N(CCOC)C2CCN(C(C)=O)CC2)cc1`, the activity score was inconclusive: -54%. For `C/C(N)=C(/C#N)C(=O)CSc1n[nH]c(-c2ccccc2Br)n1`, the activity score was inconclusive: -39.7%. In the case of `Cc1nc(-c2ccc(C(=O)Nc3cccc(Br)c3)cc2)cs1`, the activity score is reported as active: -143%. For `CCOC(=O)C1(Cc2cccc(Cl)c2)CCCN(C(=O)c2ccco2)C1` (stereo not given), the activity score was inconclusive: -57.1%. In the case of `S=c1[nH]c(-c2ccccc2)cn1/N=C/c1cccs1`, the activity score is reported as inconclusive: -61.3%. For `Cc1ccc(C(=O)N/N=C\c2cc(Br)c(Br)o2)cn1`, the activity score was inconclusive: -58.4%. With `COc1ccc(CC(=O)O/N=C(\N)Cc2cccc3ccccc23)cc1` the activity score was inconclusive: -37.5%. With `Cc1ccccc1C(=O)Nc1cccc(C(=O)N/N=C/c2ccc3c(c2)OCO3)c1` the activity score was inconclusive: -53%. For `CCC1(COC(=O)Nc2cccc(Cl)c2)COC1`, the activity score was active: -93.4%. For `Cc1c(-c2nc(N)nc(Nc3ccc(F)cc3)n2)oc2ccccc12`, the activity score was active: -95.3%. For `O=[N+]([O-])/C=C/c1ccc2c(ccn2Cc2ccccc2)c1`, the activity score was inactive: 84.5%. In the case of `O=C(Nc1ccc(N2CCCC2)c(Cl)c1)c1ccc([N+](=O)[O-])cc1`, the activity score is reported as inconclusive: -52.9%. In the case of `O=C(Nc1ccncc1)c1cc(-c2cccc(Br)c2)nc2ccccc12`, the activity score is reported as inactive: 56.9%. In the case of `CCSc1ccccc1C(=O)Nc1ccc2c(c1)OCO2`, the activity score is reported as inconclusive: -50.6%. In the case of `O=C(Nc1cccnc1)C1COc2ccccc2O1` (stereo not given), the activity score is reported as inconclusive: -35.8%. With `O=C(/C=C/c1ccccc1)Nc1cccc(C(=O)O)c1` the activity score was inactive: 94.5%. For `CCc1ccccc1NC(=O)COc1ccc2c(c1)OCO2`, the activity score was inconclusive: -49.9%. With `Cc1cccc(-c2nc(Nc3ccc(N4CCOCC4)cc3)c3ccccc3n2)c1` the activity score was inconclusive: -39.1%. In the case of `CCOc1ccccc1-n1c(CN2CCN(C(=O)c3ccco3)CC2)nc2ccccc2c1=O`, the activity score is reported as inactive: 111%. With `O=C(Nc1ccc(Cl)cc1C(F)(F)F)C(Sc1cccc[n+]1[O-])c1ccccc1` (stereo not given) the activity score was inconclusive: -35.3%. In the case of `C/C(=N\NC(=O)c1ccccc1O)C1C(=O)c2ccccc2C1=O`, the activity score is reported as inconclusive: -56.9%. In the case of `COc1ccc(C)cc1NS(=O)(=O)c1ccc(NC(=O)CN(c2cc([N+](=O)[O-])ccc2C)S(C)(=O)=O)cc1`, the activity score is reported as inactive: 114%. With `COc1cccc2cc(C(=O)Nc3ccc(F)cc3)c(=Nc3ccc(C(=O)O)cc3)oc12` the activity score was inconclusive: -55.4%. For `CNC(=S)N/N=C/c1ccc(-c2ccc(C(=O)O)cc2)o1`, the activity score was inconclusive: -34.2%. With `O=[N+]([O-])c1ccc(O)c2ncccc12` the activity score was inactive: 72.5%. In the case of `CC(C)(C)c1ccc(-c2noc(CCC(=O)NCc3ccco3)n2)cc1`, the activity score is reported as inactive: 77.3%. In the case of `O=c1ccccn1CCOc1ccc(Cl)cc1`, the activity score is reported as inconclusive: -53.2%. In the case of `O=C(Cn1cc2c(n1)CCCCC2)N1CCCCC1`, the activity score is reported as inconclusive: -55.8%. For `CCn1c(=S)[nH]c2scc(-c3cccs3)c2c1=O`, the activity score was active: -72.3%. With `Nc1ccc(C#Cc2ccc3c(=O)c4ccccc4oc3c2)cc1` the activity score was inconclusive: -52.6%. In the case of `Cc1ccc([N+](=O)[O-])cc1NC(=S)NC(=O)c1cccs1`, the activity score is reported as inconclusive: -58.3%. For `COc1ccccc1-c1nnc(SCC(=O)N2CC(C)CC(C)C2)o1` (stereo not given), the activity score was inactive: 45.8%. In the case of `CCOc1ccc(C(=O)NCCCCNC(=O)c2ccc(OCC)cc2)cc1`, the activity score is reported as inconclusive: -49.8%. For `O=C(Nc1cnc2ccccc2c1)N1CCCCC1`, the activity score was active: -73.7%. In the case of `Cc1c(C(=O)N2CCOCC2)sc(NC(=O)CCl)c1C#N`, the activity score is reported as inconclusive: -49.9%. In the case of `CCc1ccn2cc(-c3ccc4c(c3)OCO4)nc2c1`, the activity score is reported as inactive: 107%. In the case of `O=C(Nc1ccccc1)Nc1ccc(Cl)c([N+](=O)[O-])c1`, the activity score is reported as inconclusive: -56.8%. For `CC(/C=N\Nc1nnc2c(n1)[nH]c1c(C)cccc12)=C\c1ccco1`, the activity score was inconclusive: -59.7%. In the case of `Clc1c(CSc2nc3ccccc3o2)nc2ccccn12`, the activity score is reported as active: -117%. With `CSc1nc(N)n2nc(-c3ccc(Cl)cc3)cc2n1` the activity score was inconclusive: -58.7%. In the case of `CC(=O)c1ccc(NC(=O)c2ccn[nH]2)cc1`, the activity score is reported as inconclusive: -47.5%. With `C=CCNC(=O)/C(C#N)=C/c1ccccc1OCc1ccc(C(=O)OC)cc1` the activity score was inconclusive: -58.5%.
